The campaign covered roughly 150,000 compounds. About 540 (0.36%) showed an effect of 50% or more. The list shows a part of the results.
Each compound was assayed on Plasmodium falciparum (assay: Primary screen in NF54 nanoGlo assay, in single point, at 2uM, 72h; a lower Z score goes with more inhibition). Settings: timepoint 72 hour.
Format: functional, Erythrocyte

Row | Structure (SMILES) | % Inhibition [%] | Z score
1 | Cc1ccc(Cn2c(=O)c3nc(C(=O)Nc4c(C)cc(C)cc4C)nn3c3ccc(C)cc32)cc1 | -1 | 0.13
2 | O=C(c1ccc2[nH]c3c(c2c1)CCCC3)N1CCN(C(=O)c2ccco2)CC1 | -9 | 1.43
3 | CS(=O)(=O)c1ccc2nc(NC(=O)c3cc(-n4cnnn4)ccc3Cl)sc2c1 | -21 | 3.01
4 | CC1CCN(C(=O)c2ccccc2NC(=O)[C@@H]2Cc3ccccc3O2)CC1 | -4 | 0.53
5 | CNCc1ncc(-c2sccc2C)cn1 | -4 | 0.62
6 | COc1ccccc1C(C)CNC1CCN(CC2CCCO2)CC1C (stereo unspecified) | 2 | -0.22
7 | CC(=O)c1ccc(CNC(=O)c2cc(C)oc2C)nc1C | -17 | 2.57
8 | CCCn1nc(-c2ccco2)nc1[C@H]1CCCC[C@H]1C(=O)N1CCCC1 | -17 | 1.68
9 | CC1CCCCC1N(C)C(=O)COC(=O)C1CCC(NC(N)=O)CC1 (stereo unspecified) | -13 | 1.82
10 | COc1cccc(CN2CCC[C@@]3(CCN(C(=O)c4cc(N)[nH]n4)C3)C2)c1OC | -7 | 1.35
11 | CNCC(=O)N[C@@H](C)c1cnc(N(C)C2CCCCC2)nc1C | 12 | -1.53
12 | Cc1ccc(NC(=O)c2cnn(CC(F)(F)F)c2)cc1N1CCNC1=O | -9 | 1.27
13 | CC(C)c1cc(C(=O)N2CCC[C@H](c3cc(O)ncn3)C2)nc2ncnn12 | -19 | 2.91
14 | CC[C@H](NC(=O)C(=O)Nc1cnc2ccccc2c1)c1ccccc1O | -12 | 2.15
15 | Cc1ccsc1CCNC(=O)[C@H]1CC[C@H](Nc2cnccn2)CC1 | -9 | 1.12
16 | O=C(C1=COCCO1)N(CCN1CCOCC1)c1nc2ccc(F)cc2s1 | -13 | 1.61
17 | C/C=C/CN1CCCn2nc(CCC(=O)N3CCN(C)CC3)cc2C1 | 1 | -0.16
18 | CCN1CCN(C(=O)CCC2CCN(Cc3ccc(OC)cc3F)CC2)CC1 | 7 | -0.92
19 | O=C(C[C@H]1C(=O)NCCN1C1Cc2ccccc2C1)NCCOCCO | -16 | 2.05
20 | Cc1c(CN2CCc3ccccc32)cnn1C | 37 | -0.96
21 | CC1=NO[C@](C)(C(=O)N2CCc3[nH]nc(-c4ccccc4F)c3C2)C1 | -17 | 1.65
22 | CCOc1ccccc1NC(=O)c1c(-c2ccccc2)c(-c2ccccc2)n[nH]c1=O | -4 | 0.51
23 | COc1ccnc(NS(=O)(=O)c2ccc3c(c2)CCCC3)c1 | 2 | -0.38

Reference: ChEMBL document CHEMBL4888484, “Replenishing the malaria drug discovery pipeline: Screening and hit evaluation of the MMV Hit Generation Library 1 (HGL1) against asexual blood stage Plasmodium falciparum ,using a nano luciferase reporter read-out” (2022)
